The IC50 comes from the fitted curve, where viability falls to half of the control; a limit (>, <) means that the fit lies beyond the doses tested. For AUC the same curve is integrated over the 256-fold range of doses and scaled to a fraction; the more sensitive the line, the further below 1. An inferred top dose was derived from the fitted curves, not read from the paper.
What was measured:
Experiment in all cases: Viability of human cancer cell lines after 72 h of drug (GDSC screen)
ACHP (KIN001-260) = compound: N#Cc1c(C2CCNCC2)cc(-c2c(O)cccc2OCC2CC2)nc1N [ACHP (KIN001-260)]; conditions: top dose 20 µM; top dose inferred
Experimental: (§1)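 Human cancer cell lines in 384-well plates, medium with 10% serum, drug for 72 h over a 256-fold dose range (nine 2-fold or five 4-fold steps up to the top dose). Adherent lines were fixed and stained with the nucleic acid dye Syto60, suspension lines read with resazurin; signal relative to control wells, capped at 0 and 100%. One two-parameter sigmoid per drug and line, fitted in a mixed model over all curves with the slope shared within a line.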

CH5424802 = compound: CCc1cc2c(cc1N1CCC(N3CCOCC3)CC1)C(C)(C)c1[nH]c3cc(C#N)ccc3c1C2=O [CH5424802]; conditions: top dose 5.12 µM; top dose inferred
Experimental: as §1

XMD8-92 = compound: CCOc1cc(N2CCC(O)CC2)ccc1Nc1ncc2c(n1)N(C)c1ccccc1C(=O)N2C [XMD8-92]; conditions: top dose 10 µM; top dose inferred
Experimental: as §1

CAY10603 = compound: CC(C)(C)OC(=O)Nc1ccc(-c2cc(C(=O)NCCCCCCC(=O)NO)no2)cc1 [CAY10603]; conditions: top dose 20 µM; top dose inferred
Experimental: as §1

Cell Line | AUC (ACHP (KIN001-260)) | IC50 (ACHP (KIN001-260)) [µM] | AUC (CH5424802) | IC50 (CH5424802) [µM] | AUC (XMD8-92) | IC50 (XMD8-92) [µM] | AUC (CAY10603) | IC50 (CAY10603) [µM]
OVTOKO (ovary, adherent) | 0.957 | > 20 | 0.967 | > 5.12 | 0.855 | > 10 | 0.65 | 3.67
SK-MEL-30 (melanoma, adherent) | 0.924 | > 20 | 0.982 | > 5.12 | 0.852 | 8.44 | 0.655 | 3.46
OVCAR-3 (ovary, adherent) | 0.986 | > 20 | 0.987 | > 5.12 | 0.918 | > 10 | 0.987 | > 20
COLO-684 (endometrium, suspension) | 0.949 | > 20 | 0.972 | > 5.12 | 0.947 | > 10 | 0.489 | 1.16
H2731 (mesothelioma, adherent) | 0.902 | > 20 | 0.911 | > 5.12 | 0.916 | > 10 | 0.144 | 0.0788
JURL-MK1 (chronic myeloid leukaemia, suspension) | 0.786 | 8.59 | 0.972 | > 5.12 | 0.985 | > 10 | 0.425 | 0.782
DMS-273 (small cell lung carcinoma, adherent) | 0.848 | 16.2 | 0.978 | > 5.12 | 0.983 | > 10 | 0.371 | 0.538
CP50-MEL-B (melanoma, adherent) | 0.949 | > 20 | 0.987 | > 5.12 | 0.901 | > 10 | 0.538 | 1.58
HT55 (large intestine, adherent) | 0.99 | > 20 | 0.99 | > 5.12 | 0.978 | > 10 | 0.771 | 7.63
KMRC-20 (kidney, adherent) | 0.989 | > 20 | 0.987 | > 5.12 | 0.964 | > 10 | 0.809 | 10.6
OVK-18 (ovary, adherent) | 0.979 | > 20 | 0.985 | > 5.12 | 0.92 | > 10 | 0.973 | > 20
KYSE-50 (oesophagus, adherent) | 0.966 | > 20 | 0.727 | 1.32 | 0.924 | > 10 | 0.671 | 3.56
SK-PN-DW (Ewing sarcoma, adherent) | 0.861 | 18 | 0.98 | > 5.12 | 0.967 | > 10 | 0.508 | 1.32
HSC-39 (stomach, suspension) | 0.989 | > 20 | 0.849 | 3.06 | 0.948 | > 10 | – | –
OV-90 (ovary, adherent) | 0.962 | > 20 | 0.978 | > 5.12 | 0.88 | > 10 | 0.702 | 5.49
NCI-H460 (large cell lung carcinoma, adherent) | 0.979 | > 20 | 0.99 | > 5.12 | 0.986 | > 10 | 0.908 | > 20
8505C (thyroid, adherent) | 0.95 | > 20 | 0.973 | > 5.12 | 0.887 | > 10 | 0.495 | 1.21
22RV1 (prostate, adherent) | 0.954 | > 20 | 0.979 | > 5.12 | 0.967 | > 10 | 0.431 | 0.773
D-263MG (glioma, adherent) | 0.98 | > 20 | 0.983 | > 5.12 | 0.845 | 9.65 | 0.643 | 3.39
TE-10 (oesophagus, adherent) | 0.973 | > 20 | 0.983 | > 5.12 | 0.878 | 9.82 | 0.978 | > 20
LOXIMVI (melanoma, semi-adherent) | 0.984 | > 20 | 0.989 | > 5.12 | 0.89 | 9.37 | 0.591 | 2.15
A427 (non-small cell lung carcinoma, adherent) | 0.98 | > 20 | 0.978 | > 5.12 | 0.985 | > 10 | 0.76 | 7.09
MFE-280 (endometrium, adherent) | 0.899 | > 20 | 0.981 | > 5.12 | 0.98 | > 10 | 0.509 | 1.33
GRANTA-519 (B-cell lymphoma, suspension) | 0.983 | > 20 | 0.991 | > 5.12 | 0.969 | > 10 | 0.692 | 4.04
OCI-AML5 (acute myeloid leukaemia, suspension) | 0.871 | 16.1 | 0.948 | > 5.12 | 0.962 | > 10 | 0.301 | 0.366
NB6 (neuroblastoma, adherent) | 0.974 | > 20 | 0.972 | > 5.12 | 0.831 | 8.47 | 0.359 | 0.464
MKN28 (stomach, adherent) | 0.981 | > 20 | 0.984 | > 5.12 | 0.849 | 7.77 | 0.654 | 3.38
DG-75 (Burkitt lymphoma, suspension) | 0.96 | > 20 | 0.986 | > 5.12 | 0.711 | 2.48 | 0.579 | 2.06

Source: the supplement of paper PMC4967469
